About 2,200 (0.71%) of roughly 310,000 compounds showed an effect of 50% or more. Effects have a minus sign here. Some of the results follow.

The target of the test is human ether-à-go-go-related gene (hERG) potassium channel (human, UniProt Q12809). Description: primary screen, population patch clamp on CHO cells stably expressing hERG.
human ether-à-go-go-related gene (hERG) potassium channel, sequence (Q12809 whole entry, looked up): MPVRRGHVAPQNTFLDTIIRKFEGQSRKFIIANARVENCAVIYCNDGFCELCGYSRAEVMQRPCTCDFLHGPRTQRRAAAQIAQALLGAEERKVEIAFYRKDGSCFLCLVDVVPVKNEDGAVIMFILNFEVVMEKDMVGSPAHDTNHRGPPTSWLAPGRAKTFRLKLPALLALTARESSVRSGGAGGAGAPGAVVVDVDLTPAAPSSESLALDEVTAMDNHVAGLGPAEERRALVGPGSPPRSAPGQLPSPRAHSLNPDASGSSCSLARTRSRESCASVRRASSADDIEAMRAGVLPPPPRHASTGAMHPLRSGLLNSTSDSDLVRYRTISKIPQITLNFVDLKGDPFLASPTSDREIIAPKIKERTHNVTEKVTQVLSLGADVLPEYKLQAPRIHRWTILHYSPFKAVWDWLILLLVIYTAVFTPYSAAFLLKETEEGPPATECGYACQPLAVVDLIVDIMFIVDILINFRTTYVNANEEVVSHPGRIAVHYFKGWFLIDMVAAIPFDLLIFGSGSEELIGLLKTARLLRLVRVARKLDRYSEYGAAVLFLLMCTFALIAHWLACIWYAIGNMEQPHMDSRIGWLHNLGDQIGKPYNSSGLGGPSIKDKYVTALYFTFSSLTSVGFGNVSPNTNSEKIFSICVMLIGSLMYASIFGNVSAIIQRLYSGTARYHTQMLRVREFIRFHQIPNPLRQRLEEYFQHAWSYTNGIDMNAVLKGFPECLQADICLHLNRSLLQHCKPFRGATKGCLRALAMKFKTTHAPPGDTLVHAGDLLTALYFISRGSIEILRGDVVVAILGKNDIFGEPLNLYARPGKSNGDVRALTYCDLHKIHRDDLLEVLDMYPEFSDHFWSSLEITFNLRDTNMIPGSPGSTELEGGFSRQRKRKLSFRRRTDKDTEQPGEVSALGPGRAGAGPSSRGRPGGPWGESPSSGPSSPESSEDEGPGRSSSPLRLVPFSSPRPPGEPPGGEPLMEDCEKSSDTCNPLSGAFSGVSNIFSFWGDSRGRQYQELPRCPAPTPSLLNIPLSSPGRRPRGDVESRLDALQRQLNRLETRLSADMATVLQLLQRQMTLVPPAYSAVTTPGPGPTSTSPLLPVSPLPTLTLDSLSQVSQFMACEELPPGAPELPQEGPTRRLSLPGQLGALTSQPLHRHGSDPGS
Consider `O=C(Nc1ccccc1)C1(c2ccccc2)CC1(Cl)Cl` (stereo not shown), for which the “hERG current change (%, negative = inhibition) at 1uM” value stood at 7.93%.

For the compound `C/C(=N/NS(=O)(=O)c1cccc([N+](=O)[O-])c1)c1ccc2c(c1)OCO2`, the “hERG current change (%, negative = inhibition) at 1uM” value worked out at 14.4%.

Turning to `c1ccc(-c2nc(N3CCOCC3)c3ccccc3n2)nc1`, the “hERG current change (%, negative = inhibition) at 1uM” value stood at 5.13%.

Take `CC1CCc2cc(F)ccc2N1C(=O)c1ccc2c(c1)OCO2` (stereo not shown): the “hERG current change (%, negative = inhibition) at 1uM” value is recorded as 5.72%.

For `N#CCSc1nc2ccccc2c2nc3ccccc3n12`, the “hERG current change (%, negative = inhibition) at 1uM” value is 8.73%.

As for `O=C(COc1ccc2ccccc2c1)N1c2ccccc2Sc2ccccc21`, the “hERG current change (%, negative = inhibition) at 1uM” value was 4.35%.

For the compound `COc1ccc(C)cc1N1C(=N)/C(=C2/Nc3ccccc3S2)C(c2ccccc2)C1=O` (stereo not shown), the “hERG current change (%, negative = inhibition) at 1uM” value amounted to 13.3%.

Take `N#Cc1ccccc1OCC(=O)OCC(=O)N1CCN(C(=O)c2ccco2)CC1`: the “hERG current change (%, negative = inhibition) at 1uM” value came to 10.3%.

For `CC(C)C[C@@]12C(=O)N(c3cccc(Cl)c3)C(=O)N1[C@H](c1ccc(Br)cc1)[C@@H]1C(=O)N(C(C)(C)C)C(=O)[C@@H]12`, the “hERG current change (%, negative = inhibition) at 1uM” value is 17.6%.

As for `CC1(c2ccc(OC(F)F)cc2)NC(=O)N(CC(=O)Nc2ccc(F)cc2)C1=O` (stereo not shown), the “hERG current change (%, negative = inhibition) at 1uM” value is -15.6%.

For the compound `Clc1ccccc1Nc1nc(-c2cccnc2)cs1`, the “hERG current change (%, negative = inhibition) at 1uM” value came out at 8.71%.

On to `O=C(CCN=C1NS(=O)(=O)c2ccccc21)OCC(=O)c1ccccc1Cl`, for which the “hERG current change (%, negative = inhibition) at 1uM” value is reported as -0.761%.

Turning to `COc1cccc(-c2cc(C(F)(F)F)n3ncc(C(=O)O)c3n2)c1`, the “hERG current change (%, negative = inhibition) at 1uM” value is reported as 12.7%.

`CCOC(=O)Cn1c(C)cc(COC)c(C#N)c1=O`: the “hERG current change (%, negative = inhibition) at 1uM” value amounted to 10.8%.

Regarding `COc1ccc2c(c1)C1NC(=S)N[C@@](C)(O2)C1C(=O)Nc1ccccc1` (stereo partly shown), the “hERG current change (%, negative = inhibition) at 1uM” value was found to be 3.32%.

`O=C(NCCCCc1ccccc1)Nc1ccc(F)cc1`: the “hERG current change (%, negative = inhibition) at 1uM” value is reported as 10.4%.

For `CCc1ccc(OCC(=O)N(Cc2cccs2)C2CCS(=O)(=O)C2)cc1` (stereo not shown), the “hERG current change (%, negative = inhibition) at 1uM” value was found to be 2.68%.

As to `CCc1csc(CCNC(=O)C2CCC(=O)N(Cc3cccc(C(F)(F)F)c3)C2)n1` (stereo not shown), the “hERG current change (%, negative = inhibition) at 1uM” value is 10.8%.

As to `Cc1ccc(S(=O)(=O)N2CCN(C(=O)Cc3ccccc3)CC2)cc1C`, the “hERG current change (%, negative = inhibition) at 1uM” value amounted to 8.01%.

As for `Cc1ccc2c(c1)c1nnc(SCC(=O)N3CCN(c4ccc(F)cc4)CC3)nc1n2CC(=O)O`, the “hERG current change (%, negative = inhibition) at 1uM” value is listed as -11.7%.

As for `COc1ccc(C2=NS(=O)(=O)N(C)C(C(=O)N3CCC4(CC3)OCCO4)=C2)cc1OC`, the “hERG current change (%, negative = inhibition) at 1uM” value amounted to 16.8%.

Regarding `N#C/C(=C/c1ccc(N2CCOCC2)o1)C(=O)N1CCOCC1`, the “hERG current change (%, negative = inhibition) at 1uM” value stood at 21%.

Regarding `Cc1ccc(/C=N/NC(=O)c2ccc(NC(=O)c3ccccc3Cl)cc2)o1`, the “hERG current change (%, negative = inhibition) at 1uM” value was found to be 9.83%.

Regarding `CCN(CC)c1ccc(/C=N/NC(=O)c2cccc(N3CCCC3=O)c2)cc1`, the “hERG current change (%, negative = inhibition) at 1uM” value is -3.06%.

Take `Cc1cc2nc(-c3cccc(NC(=O)c4ccc(Br)o4)c3C)oc2cc1C`: the “hERG current change (%, negative = inhibition) at 1uM” value is given as 3.81%.

For the compound `COc1ccccc1NC(=O)C1CCCN(S(=O)(=O)c2ccc(-n3cnnn3)cc2)C1` (stereo not shown), the “hERG current change (%, negative = inhibition) at 1uM” value was -23.5%.

Turning to `Cc1ccc(OCC(=O)Nc2ccc(N3CCN(S(C)(=O)=O)CC3)cc2)cc1C`, the “hERG current change (%, negative = inhibition) at 1uM” value worked out at 10.8%.

For `COc1ccc(NC(=O)COc2ccc(-c3nn(C)c(=O)c4ccccc34)cc2)cc1`, the “hERG current change (%, negative = inhibition) at 1uM” value is 11.9%.

For the compound `O=C(Nc1cc(S(=O)(=O)N2CCOCC2)ccc1Cl)C1CCC1`, the “hERG current change (%, negative = inhibition) at 1uM” value amounted to 5.68%.

Turning to `Cc1ccccc1CS(=O)(=O)Cc1ccc(C(=O)NC2CCCCC2)o1`, the “hERG current change (%, negative = inhibition) at 1uM” value is recorded as 7.45%.

For the compound `CCC(C)c1ccc(NC(=S)N2CCCC2)cc1` (stereo not shown), the “hERG current change (%, negative = inhibition) at 1uM” value is listed as 9.73%.

For `CC(C)C(=O)Nc1cccc(C(=O)Nc2ccc(S(=O)(=O)N3CCOCC3)cc2)c1`, the “hERG current change (%, negative = inhibition) at 1uM” value is reported as 15.2%.

Take `CCCC(O)(c1ccc(Br)cc1)C(CN1CCOCC1)c1ccc(Cl)cc1.Cl` (stereo not shown): the “hERG current change (%, negative = inhibition) at 1uM” value is recorded as 7.9%.

For `O=C(CNC(=O)c1cc(S(=O)(=O)N2CCCCC2)ccc1N1CCOCC1)Nc1ccc(F)c(F)c1`, the “hERG current change (%, negative = inhibition) at 1uM” value is reported as 24%.

Regarding `CC1CCN(C(=O)Cn2c(=O)n(Cc3ccco3)c(=O)c3sccc32)CC1`, the “hERG current change (%, negative = inhibition) at 1uM” value was found to be 10.1%.

Regarding `O=C(Cc1ccccc1)NCCC1=CCCCC1`, the “hERG current change (%, negative = inhibition) at 1uM” value came out at 9.71%.

Turning to `CCC(=O)c1ccc(OCC(=O)OC(C)C(=O)N2CCc3ccccc32)cc1` (stereo not shown), the “hERG current change (%, negative = inhibition) at 1uM” value is listed as 4.6%.

As to `O=C(CSc1nccn1-c1ccccc1)NO`, the “hERG current change (%, negative = inhibition) at 1uM” value amounted to 8%.

Take `COc1ccc(CN2CCC(C(=O)Nc3ccc(Oc4cccnc4)cc3)CC2)cc1`: the “hERG current change (%, negative = inhibition) at 1uM” value was -41.5%.

Consider `CC(C)c1onc(C(=O)N2CCOCC2)c1[N+](=O)[O-]`, for which the “hERG current change (%, negative = inhibition) at 1uM” value worked out at 9.92%.

Turning to `NNC(=O)CNC(=O)C12CC3CC(CC(C3)C1)C2`, the “hERG current change (%, negative = inhibition) at 1uM” value was found to be 11.7%.

For the compound `O=C(Cn1cnc2c(nnn2Cc2ccccc2F)c1=O)N1CCN(c2ccccc2)CC1`, the “hERG current change (%, negative = inhibition) at 1uM” value was 5.04%.

For `NC(=O)CSc1nnc(Cc2cccs2)n1C1CCCCC1`, the “hERG current change (%, negative = inhibition) at 1uM” value is reported as 9.22%.

The values above are taken from article PMC4336329 (PLoS ONE, 2015).
